The other results are listed elsewhere or left out.
system: PfAP2-HC AP2 domain (GST-tagged); assay: gcPBM binding intensity (ln(normalized median fluorescence intensity)); higher = stronger DNA binding
Summary of the method: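 An Agilent 4 × 180k array carrying primer-extended double-stranded 36-bp intergenic genomic probes and negative controls received GST-tagged P. falciparum DNA-binding domains expressed in E. coli, about 25 μg on average, for 1 h. The binding buffer contained 1× PBS, 1% milk, 0.2 mg/ml BSA, 0.5% salmon testes DNA and 0.03% Triton X-100. Binding intensity is the top Masliner-normalised natural-log median intensity across replicate spots of either probe orientation, read after Alexa488 anti-GST antibody staining and a 488 nm scan.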

Row | Sequence | gcPBM binding intensity (ln)
1 | TATGATTTTTATATATGTACGTATGGTGTTTTACAA [XGTACX_site6100] | 9.69
2 | AATAAATTTCAAAATTGTACTCATTTCCTTTCCCAA [XGTACX_site5887] | 9.44
3 | TGTGAAATAAAATTTGTACACACATATATATATATA [CACACA_site8093] | 9.74
4 | TTCATTCAAATCCAAGCATGCTTTATTAAAAAATTA [TGCATGCA_site567] | 9.17
5 | ATATATAATTCCCAAGTGCATTTATTTTAATTATTA | 9.54
6 | ATATATATATATATATGTACACATATATTTCTTTTC [XGTACX_site3443] | 9.62
7 | ATAAAATTTTATATGGGTACATAATATAATATATAT [XGTACX_site8160] | 9.65
8 | ATTCCTGGACCGTTCATGCACTTGCAGAACGTCCAT | 9.48
9 | TTTATGAAATGTTGCACACAAAAAACAACATGTTTT [CACACA_site1440] | 9.77
10 | TTTAAAAATTAATTCTGTACACATTTTTATTATATT [XGTACX_site4212] | 9.78
11 | AAATGATATAAATTATAAAATGGATTTTTTCCATTG [CACACA_negctrl_site420] | 9.43
12 | AAAAAAAAAAAAAGTGCACACGATTTAAGGCCTATA [CACACA_site2823] | 9.99
13 | CTTAAAATGATAATATGTACACATAAATAATATATA [XGTACX_site8330] | 9.7
14 | TTTTTTGACATTCCTTTTAATAATTAACGAAAGGCA [GTGCAC_negctrl_site377] | 9.13
15 | TAAGTTTGTCAATCAACACACACCTATTTATTATAT [CACACA_site3919] | 10.2
16 | CACTTTAATTTATGCACACATATGGAACAACAGCCA [CACACA_site994] | 9.81
17 | TATAATCAATGCCAAAGTACATATTAATATATTTAT [XGTACX_site4558] | 9.59
18 | ATTGAAAAATAAAAATGTACACATGTAGCATACCAT [XGTACX_site3275] | 9.98
19 | AATATATCGCATAGTTGTACAGAATTTTTACTTTTA [XGTACX_site8192] | 9.6
20 | TATATAATATTACGTTGTACACTTTAATCTCCCTTC [XGTACX_site5577] | 9.63
21 | ACCATTTGAAAATTCACACACTTTATTTTGTTATAT [CACACA_site5976] | 10.1
22 | ACTAATATGCAATATTGTACATATATATAGAAATAT [XGTACX_site5273] | 9.65
23 | AAATGTATACACATGGTGCGTAATATATTATATATA [GTGCAC_site9877] | 9.79
24 | CTACCAAATCTATAGACACACATATATATATATATT [CACACA_site2486] | 9.9
25 | GAACTAATAATGAAAAGTACACATACACATATATAT [XGTACX_site6789] | 9.88

— the supplement of paper PMC11417369
